# Laboratory results: paper PMC10668032
# The list shows a part of the results. At the low end of the ranking the order means little.
# Molecular target: SIX1 homeodomain (reference allele) (UniProt Q15475)
# Experiment: universal protein binding microarray
# Settings: Universal all-10-mer PBM (8x60K, AMADID 030236), 300 nM GST-tagged protein, Alexa Fluor 488 anti-GST; buffer, salt, pH and temperature not stated; high values mean tight binding; most listed sequences are background and not binding sites; double strand, one strand shown
row,Sequence,binding signal [E-score]
1,CTGGTTAC,-0.172
2,CACACCTC,0.267
3,ATCGTCCG,0.135
4,TATTCCAA,0.106
5,GTTGAGAA,-0.0667
6,GGTAACGA,0.128
7,CAAGGCGA,-0.0927
8,ATGTGCCC,-0.0537
9,GGGTTACA,0.0369
10,TAGCGTGA,-0.0844
11,AGTTCTCG,-0.139
12,CCGTTGCG,-0.0425
13,CATTATCA,0.133
14,CCGTCGAC,-0.149
15,ACCCGCTG,0.0161
16,CTTTTTTA,-0.232
17,GAACGTAC,-0.173
18,TAATGTCA,-0.237
19,AGTAAACA,-0.0318
20,CAAGTGTC,-0.131
21,CCGGTACC,0.0853
22,ACCCCAAA,0.186
23,TTCACGAA,-0.279
24,CCTCTTAA,-0.0528
25,ACCCGAAT,0.131

row,Sequence,binding signal [E-score]
1,CAGATCTG,0.216
2,CCACGTCG,-0.0838
3,AGATAAGG,0.102
4,TACGTAAA,-0.25
5,ATCCAGTG,0.259
6,CGTTTCAA,-0.0446
7,AAAATTGC,-0.164
8,AACAAGCG,-0.102
9,CCTTTTCA,-0.0436
10,TCACGTAA,0.0646
11,ATTAGAGA,-0.0906
12,CGCAAGAC,-0.0946
13,CGCGATGA,0.0874
14,AAAATACG,0.116
15,ACTCGCTC,-0.15
16,CTTGGCTA,-0.0874
17,CATATGAG,0.19
18,GCACCAAA,-0.0677
19,AACACGTT,-0.151
20,GGAGGGTA,0.295
21,CAACTCTG,-0.0195
22,AACTATCG,0.149
23,AAGATAAC,0.00477
24,AAACGTAA,-0.322
25,AGATTTGG,-0.138

row,Sequence,binding signal [E-score]
1,AGGGATAC,0.415
2,ACCCGATG,0.138
3,CCTGTGTA,-0.0314
4,CCCGAAAC,-0.0573
5,CGAGCACG,-0.0291
6,CTACCTCA,-0.204
7,AAGACCGT,-0.132
8,CACCAGAC,0.219
9,CGCCAGGA,-0.0391
10,TCCAGGGA,0.0659
11,GTGAAAAC,-0.236
12,ACCGTTAA,-0.09
13,GACTATGC,0.0479
14,CCCCTAGC,-0.0317
15,ATTCTGTA,0.0169
16,AGCGACAG,-0.133
17,TTCTGCAA,-0.0641
18,CCTTCCAA,-0.201
19,CGCCTGCA,-0.0423
20,CGCTTTTC,-0.113
21,ATGGTTTA,-0.00407
22,AACAGGGA,-0.028
23,GGATAGCC,0.35
24,CCAGAAGC,-0.121
25,GGTATTGA,0.386

row,Sequence,binding signal [E-score]
1,CCTAAACG,-0.282
2,GATATAAC,0.316
3,AGGCACGC,-0.185
4,CACCGTCG,0.0527
5,GACGAGTA,-0.0154
6,AGGTTGAT,0.106
7,CGTCCGCA,-0.162
8,GATCGACC,0.162
9,CACCGTAA,0.0371
10,ACATTTCA,-0.108
11,CGGGGCAG,-0.0556
12,CAGGCTAC,-0.0114
13,GAGCCTGA,-0.0603
14,AAGCCATG,-0.0651
15,TAGACCTA,0.0118
16,GACTGGCA,-0.306
17,AGAGTTTG,-0.0975
18,AATAGCAC,0.0402
19,GGACCCGA,-0.0718
20,ATGGTTCG,-0.056
21,CTGCTAGC,-0.128
22,ACCAGCAA,-0.178
23,AAGCATCG,-0.137
24,CAGCACGA,-0.0264
25,CTAGAGAG,-0.0884

row,Sequence,binding signal [E-score]
1,GGAGGCCC,-0.291
2,ACGGTAGG,-0.00813
3,GATGGGGC,-0.0523
4,CCGTCTGC,-0.0576
5,AGATTCAG,-0.226
6,GCCCCAAC,-0.0945
7,GGAGTACA,0.0626
8,GACGGTAC,0.0329
9,CATTGAAG,-0.169
10,CACAGAAG,-0.0147
11,ATCAGGCA,0.0745
12,AAATATCG,0.128
13,CCATGTAG,-0.0954
14,ACTACAGA,0.0645
15,ATGCACCC,0.086
16,ACAGATCC,0.288
17,CGTGGGTC,0.00723
18,CACAGCAA,0.113
19,AGACTTTG,-0.281
20,CTGTGACC,-0.0966
21,GAATCGAA,-0.126
22,CTTAGCAA,-0.242
23,AAGGTTCC,-0.12
24,AGCGAGCT,0.0842
25,TATCGAAA,0.345

row,Sequence,binding signal [E-score]
1,GAATCATA,-0.0778
2,ATACAGAG,0.116
3,GGCGAAAA,-0.32
4,TCATGACA,0.0517
5,AGCACTCA,-0.228
6,AAGGGTAT,0.41
7,ATGCATTA,0.148
8,AACGTCCT,-0.237
9,GCAACCCC,-0.0952
10,CCCGATGC,0.112
11,AATATTGA,0.0107
12,GATCATAA,0.306
13,GATAGTAA,0.221
14,CAAGCCGC,-0.136
15,GGCAGAAC,-0.0861
16,CGGGTAGC,-0.0556
17,ACGCAGCT,-0.15
18,AGGACCAT,-0.0608
19,CTATAACA,-0.0432
20,CGCGATAC,0.458
21,CTGCCTCA,-0.126
22,ATAGGGAG,0.091
23,CTTCAACC,-0.139
24,ACTGAAAC,0.105
25,CTCCTCGC,-0.0954

row,Sequence,binding signal [E-score]
1,ACGCTTTA,-0.278
2,AGAGTTAC,-0.0751
3,CAATGCGG,0.176
4,ACTAATGA,0.0163
5,GCCCATAA,-0.0393
6,CCACAGGG,-0.0393
7,TCCGACCA,0.0375
8,CCTCGGTA,-0.0538
9,AGTGACGG,0.00215
10,GATAGGGA,0.376
11,ATGTAGTC,-0.0974
12,CCCAGACG,-0.0608
13,GCACCTCA,-0.0942
14,GCGGGGCA,0.0307
15,CATCTACC,0.156
16,TACTGCCA,0.0236
17,CCAAGGCA,-0.00904
18,AACCTCTC,-0.146
19,CTGGAATA,0.0952
20,CGGATTAG,0.251
21,CTAGGGTA,0.15
22,CGCGTTAA,-0.0847
